In the RNAGym collection of RNA variant scans (doi:10.1073/pnas.2313332121):
Variants at the floor of the assay are shown more often than the library holds them.

B1: TPR 5TU (parent)
chain: GGAUCUUCUCGAUCUAACAAAAAAGACAAAUCUGCCACAAAGCUUGAGAGCAUCUUCGGAUGCAGAGGCGGCAGCCUUCGGUGGCGCGAUAGCGCCAACGUUCUCAACUAUGACACGCAAAACGCGUGCUCCGUUGAAUGGAGUUUAUCAUG

Variants of: B1
Assay: polymerase ribozyme fitness, log enrichment relative to wild type (log ratio); higher = more active; in vitro selection for triplet polymerase activity
In short: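 For each subunit of a heterodimeric triplet polymerase ribozyme, a mutant library was built by PCR and transcribed, then taken through a single in vitro selection round in triplicate. Selection involved annealing to a biotinylated primer, the partner subunit and triplets, incubation frozen at −7 °C, gel excision of extended constructs, capture on streptavidin beads and RT-PCR. Genotypes were retained after Illumina sequencing of inputs and outputs only with ≥10 input reads and ≥1 read in each output. Fitness is defined as the logarithm of a genotype's enrichment relative to wild-type enrichment, using inverse-variance-weighted averages across replicates, with the logarithm taken to base 2.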

Row | Variant | polymerase ribozyme fitness (log ratio)
1 | GGAUCUUCUCGAUCUAACAAAAAAGACAAAUCUGCCACAAAGCUUGAGAGCCUCUUCGGAAGCAAAGGCGGCAGCCUUCGGUGGCGCGAUAGCGACAACGUUCUCAACUAUGACACGCAAAACGCGUGCUCCGUUGAAUGUAGUUUAUCAUG [A52C U61A G65A C95A G141U] | -2.36
2 | GGAUCUUCUCGAUCUAACAAAAAAGACAAAUCUGCCACAAAGCUUGAGAGCGUCUUCGGAUGCAGAGGCGGCAGGCUUCGGUGGCGCGAUGGCGCCAACGUUCUCAACGAUGGCACGCAAAACGCGUGCUCCGUUGAAUGGAGUUUAUCAUG [A52G C75G A91G U109G A113G] | ≤ -4.2
3 | GGAUCUUCUCGAUCUAACAAAAAAGACAAAUCUGCCACAAAGCUUGAGAGCGUCUUCGGAUGCAGAGGCGGCCGCCUUCGGUGGCUCGAUAGCGUCAACGUUCUCAACUAUGACACGCAAAACACGUGCUCCGUUGAAUGGAGUUUAUCAUG [A52G A73C G86U C95U G124A] | ≤ -4.2
4 | GGAUCUUCUCGAUCUAACAAAAAAGACAAAUCUGCCACAAAGCUUGAGAGCGUCUUCGGAUGCAGUGGCGGCAGCCUUCGGUGGCGCGAUUGCGCCAACGUUCUCAACUAUGACACGCAAAACGCGUGCUCCGUUGAAUGGAGUUUAUCAUG [A52G A66U A91U] | ≤ -4.2
5 | GGAUCUUCUCGAUCUAACAAAAAAGACAAAUCUGCCACAAAGCUUGAGAGCCUCUCAGGAUGCAGAAGCGGCAGCCUUCGGUGGUGCGAUAGCGCCUACGUUCUCAACUAUGACACGCAAAACGCGUGCUCCGUUGAAUGGAGUUGAUCAGG [A52C U56C C57A G67A C85U A97U U146G U151G] | ≤ -4.2
6 | GGAUCUUCUCGAUCUAACAAAAAAGACAAAUCUGCCACAAAGCUUGAGAGCGUCUUCGGAUGCAGAGGUGGCAGCCUUCGGUGGCGCGAUAGCGCCAACGUUCUCCACUAUGACACGCAAAACGUGUGCUCCGUUGAAUGGAGUUUAUCAUG [A52G C69U A106C C125U] | -4.12
7 | GGAUCUUCUCGAUCUAACAAAAAAGACAAAUCUGCCACAAAGCUUGAGAGCGUCUUCGGAUGCAGAGGGGGCAGCCUUCGGUGGCGCGAUAUCGCCAACGUUCUCAACUAUGACACGCAAAACGCGUGCUGCGUUGAAUGGAGUUUAUCAUG [A52G C69G G92U C131G] | ≤ -4.2
8 | GGAUCUUCUCGAUCUAACAAAAAAGACAAAUCUGCCACAAAGCUUGAGAGCGUCUUCGGAUGCAGAGGCGGCAGUUUUCGGUGGCGCGAUAGCGCCGACGUUAUCACCUAUGACACGCAAAACGCGUGCUCCGUUGAAUGGAGUUUAUCAUG [A52G C75U C76U A97G C103A A107C] | ≤ -4.2
9 | GGAUCUUCUCGAUCUAACAAAAAAGACAAAUCUGCCACAAAGCUUGAGAGCGUCUUUGGAAGCAGAGGCGGCAGCCUUCGGUGGCGGGAUAACACCAACGUUCUCAAGUAUGACACGCAAAACGCGUGCUCCGUUGAAUGGAGUUUAUCAUG [A52G C57U U61A C87G G92A G94A C108G] | ≤ -4.2
10 | GGAUCUUCUCGAUCUAACAAAAAAGACAAAUCUGCCACAAAGCUUGAGAGCGUCUUCGGAUGCAGCGGCGGCAGCCUUCGGUGGAGCGAUAGCGCCAACGUUCUCAACUCUGACACGCAAAACGCGUGCUCCGUUGAAUGGAGUUUAUCAUG [A52G A66C C85A A110C] | ≤ -4.2
11 | GGAUCUUCUCGAUCUAACAAAAAAGACAAAUCUGCCACAAAGCUUGAGAGCGUCUUCGGAUGUAGAGGCGGCAGCCUUCGGUGGCGCGAUAGUGCCAACGUUCUCAACUAUGACACGCAAAACGCGUGCUCCGUUGAAUGGAGUGUAUUAUG [A52G C63U C93U U145G C149U] | -4.11
12 | GGAUCUUCUCGAUCUAACAAAAAAGACAAAUCUGCCACAAAGCUUGAGAGCGUCUUCGGAUGCUGAGGCGGCAGCCUUCGGUGGCGCGAUAGCGCCAACGGUCUCACCUAUGACACGCAAAACGGGUGCUCCGUUGAAUGGAGUUUAUCAUG [A52G A64U U101G A107C C125G] | ≤ -4.2
13 | GGAUCUUCUCGAUCUAACAAAAAAGACAAAUCUGCCACAAAGCUUGAGAGCGUCUUAAGAUGCAGAGGCGGCAGCCUUCGGUUGCGCGAUAGCGUCAACGUUCUCAACUAUGACACGCAAAACGCGUGCUCCGUUGAAUGGAGUUUAUCAUG [A52G C57A G58A G83U C95U] | -0.758
14 | GGAUCUUCUCGAUCUAACAAAAAAGACAAAUCUGCCACAAAGCUUGAGAGCGUCUUCGGAUGCAGAGGCGGCAGGCUUCGGUGGCGCGAUAGCGCCAACGUUCUCAACUAUGACACGCAAAACGCCUGCUCCGUUGCAUGGAGUUUAUCAUG [A52G C75G G126C A137C] | ≤ -4.2
15 | GGAUCUUCUCGAUCUAACAAAAAAGACAAAUCUGCCACAAAGCUUGAGAGCGUCUUCGGCUGCAGAGGUGGCAGCCUUCGGUGGGGCGAUAGCGCAAACGUUCUCAACUAUGACACGCAAAACGCGUGCGCCGUUGAAUGGAGUUUAUCAUG [A52G A60C C69U C85G C96A U130G] | ≤ -4.2
16 | GGAUCUUCUCGAUCUAACAAAAAAGACAAAUCUGCCACAAAGCUUGAGAGCGUCUUCGGAUGCAGAGGCGGCAGCCUUCGGUGGCGCGAUAGCGCCAACGUUCUCCACUAUGACACGCAAAACGCGUGCUCCGUUGAAUGGAGUUUAUCAUG [A52G A106C] | -0.69
17 | GGAUCUUCUCGAUCUAACAAAAAAGACAAAUCUGCCACAAAGCUUGAGAGCGUCUUCGGCUGCAGAGGCGGCAGCCUUCGGUGGCGCGAUAGCGCCAACGUUCUCAACUAUGACACGCAAAACGCGUGCUCCGUUGAAUGGAGUUUAUCAUG [A52G A60C] | -1.96
18 | GGAUCUUCUCGAUCUAACAAAAAAGACAAAUCUGCCACAAAGCUUGAGAGCCUCUUCGGAAGCAGAGACGGCAGCCUUCGGUGGUGCGAUAGCGCCAACGUUCUCAACUAUGACACGCAAAACGCGUGCUCCGUUGAAUGGAGUUUAUCAUG [A52C U61A G68A C85U] | ≤ -4.2
19 | GGAUCUUCUCGAUCUAACAAAAAAGACAAAUCUGCCACAAAGCUUGAGAGCCUCUGCGGAUGUAGAGACGGCAGCCUUCGGUGGCGCGAUAGUGCCAACGUUGUCAACUAUGACACGCAAAACGCGUGCUCCGUUGAAUGGAGUUUAUCCUG [A52C U56G C63U G68A C93U C103G A150C] | ≤ -4.2
